# Test results as given in PMC9911399, “Two distinct binding modes provide the RNA-binding protein RbFox with extraordinary sequence specificity”.
# Numbering of substitutions follows the chain as printed; changes in the protein carry UniProt numbers. Some of the results follow.
# T1: RBFOX1 RRM RbFoxmut (Fox-RRM*) (Homo sapiens, UniProt Q9NWB1 109-208, R118D;E147R;N151S;E152T)
# T1 sequence: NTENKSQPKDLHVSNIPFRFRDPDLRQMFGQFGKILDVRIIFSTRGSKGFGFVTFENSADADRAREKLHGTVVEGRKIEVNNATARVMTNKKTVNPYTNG
# B1: AUAGUGC (DNA:RNA)
# RNA: GGGAGACCGGAAUUCAGAUUGUCCAUAGUGCUUAAAUCCCGUCGUAGCCACCA
# DNA 1: CAATCTGAATTCCGGTCTCCC
# DNA 2: TGGTGGCTACGACGGGATT
# B2: CCUCACC (DNA:RNA)
# RNA: B1 RNA with A25C, U26C, A27U, G28C, U29A, G30C
# DNA 1: CAATCTGAATTCCGGTCTCCC
# DNA 2: TGGTGGCTACGACGGGATT
# B3: CCUCGGA (DNA:RNA)
# RNA: B1 RNA with A25C, U26C, A27U, G28C, U29G, C31A
# DNA 1: CAATCTGAATTCCGGTCTCCC
# DNA 2: TGGTGGCTACGACGGGATT
# B4: UCAAGAA (DNA:RNA)
# RNA: B1 RNA with A25U, U26C, G28A, U29G, G30A, C31A
# DNA 1: CAATCTGAATTCCGGTCTCCC
# DNA 2: TGGTGGCTACGACGGGATT
# B5: CCGAAGG (DNA:RNA)
# RNA: B1 RNA with A25C, U26C, A27G, G28A, U29A, C31G
# DNA 1: CAATCTGAATTCCGGTCTCCC
# DNA 2: TGGTGGCTACGACGGGATT
# B6: UGGUUGG (DNA:RNA)
# RNA: B1 RNA with A25U, U26G, A27G, G28U, C31G
# DNA 1: CAATCTGAATTCCGGTCTCCC
# DNA 2: TGGTGGCTACGACGGGATT
# B7: GACCAAU (DNA:RNA)
# RNA: GGGAGACCGGAAUUCAGAUUGUCCGACCAAUUUAAAUCCCGUCGUAGCCACCA
# DNA 1: CAATCTGAATTCCGGTCTCCC
# DNA 2: TGGTGGCTACGACGGGATT
# B8: ACUCUGA (DNA:RNA)
# RNA: B1 RNA with U26C, A27U, G28C, C31A
# DNA 1: CAATCTGAATTCCGGTCTCCC
# DNA 2: TGGTGGCTACGACGGGATT
# B9: GACCUAG (DNA:RNA)
# RNA: B7 RNA with A29U, U31G
# DNA 1: CAATCTGAATTCCGGTCTCCC
# DNA 2: TGGTGGCTACGACGGGATT
# B10: UAAGGGA (DNA:RNA)
# RNA: B1 RNA with A25U, U26A, U29G, C31A
# DNA 1: CAATCTGAATTCCGGTCTCCC
# DNA 2: TGGTGGCTACGACGGGATT
# B11: CUUCUUU (DNA:RNA)
# RNA: B1 RNA with A25C, A27U, G28C, G30U, C31U
# DNA 1: CAATCTGAATTCCGGTCTCCC
# DNA 2: TGGTGGCTACGACGGGATT
# B12: CUACGCG (DNA:RNA)
# RNA: B1 RNA with A25C, G28C, U29G, G30C, C31G
# DNA 1: CAATCTGAATTCCGGTCTCCC
# DNA 2: TGGTGGCTACGACGGGATT
# B13: UCUCCUU (DNA:RNA)
# RNA: B7 RNA with G25U, A26C, C27U, A29C, A30U
# DNA 1: CAATCTGAATTCCGGTCTCCC
# DNA 2: TGGTGGCTACGACGGGATT
# B14: GUAACCU (DNA:RNA)
# RNA: B1 RNA with A25G, G28A, U29C, G30C, C31U
# DNA 1: CAATCTGAATTCCGGTCTCCC
# DNA 2: TGGTGGCTACGACGGGATT
# B15: CUACGAC (DNA:RNA)
# RNA: B1 RNA with A25C, G28C, U29G, G30A
# DNA 1: CAATCTGAATTCCGGTCTCCC
# DNA 2: TGGTGGCTACGACGGGATT
# B16: UCAGGGC (DNA:RNA)
# RNA: B1 RNA with A25U, U26C, U29G
# DNA 1: CAATCTGAATTCCGGTCTCCC
# DNA 2: TGGTGGCTACGACGGGATT
# B17: CCCGCUG (DNA:RNA)
# RNA: B1 RNA with A25C, U26C, A27C, U29C, G30U, C31G
# DNA 1: CAATCTGAATTCCGGTCTCCC
# DNA 2: TGGTGGCTACGACGGGATT
# B18: UAACACG (DNA:RNA)
# RNA: B7 RNA with G25U, C27A, A30C, U31G
# DNA 1: CAATCTGAATTCCGGTCTCCC
# DNA 2: TGGTGGCTACGACGGGATT
# B19: UAGCAGU (DNA:RNA)
# RNA: B7 RNA with G25U, C27G, A30G
# DNA 1: CAATCTGAATTCCGGTCTCCC
# DNA 2: TGGTGGCTACGACGGGATT
# B20: UCGCGAC (DNA:RNA)
# RNA: B7 RNA with G25U, A26C, C27G, A29G, U31C
# DNA 1: CAATCTGAATTCCGGTCTCCC
# DNA 2: TGGTGGCTACGACGGGATT
# B21: GUGUGUG (DNA:RNA)
# RNA: B1 RNA with A25G, A27G, G28U, U29G, G30U, C31G
# DNA 1: CAATCTGAATTCCGGTCTCCC
# DNA 2: TGGTGGCTACGACGGGATT
# B22: AAAUCAG (DNA:RNA)
# RNA: B1 RNA with U26A, G28U, U29C, G30A, C31G
# DNA 1: CAATCTGAATTCCGGTCTCCC
# DNA 2: TGGTGGCTACGACGGGATT
# B23: CAACUUC (DNA:RNA)
# RNA: B1 RNA with A25C, U26A, G28C, G30U
# DNA 1: CAATCTGAATTCCGGTCTCCC
# DNA 2: TGGTGGCTACGACGGGATT
# B24: GGAGGAC (DNA:RNA)
# RNA: B1 RNA with A25G, U26G, U29G, G30A
# DNA 1: CAATCTGAATTCCGGTCTCCC
# DNA 2: TGGTGGCTACGACGGGATT
# B25: UGCAUUC (DNA:RNA)
# RNA: B1 RNA with A25U, U26G, A27C, G28A, G30U
# DNA 1: CAATCTGAATTCCGGTCTCCC
# DNA 2: TGGTGGCTACGACGGGATT
# B26: CACUAUU (DNA:RNA)
# RNA: B7 RNA with G25C, C28U, A30U
# DNA 1: CAATCTGAATTCCGGTCTCCC
# DNA 2: TGGTGGCTACGACGGGATT
# B27: UGUGGGU (DNA:RNA)
# RNA: B1 RNA with A25U, U26G, A27U, U29G, C31U
# DNA 1: CAATCTGAATTCCGGTCTCCC
# DNA 2: TGGTGGCTACGACGGGATT
# B28: UGUGUGC (DNA:RNA)
# RNA: B1 RNA with A25U, U26G, A27U
# DNA 1: CAATCTGAATTCCGGTCTCCC
# DNA 2: TGGTGGCTACGACGGGATT
# B29: AGCGAAC (DNA:RNA)
# RNA: B1 RNA with U26G, A27C, U29A, G30A
# DNA 1: CAATCTGAATTCCGGTCTCCC
# DNA 2: TGGTGGCTACGACGGGATT
# B30: CGUAGUC (DNA:RNA)
# RNA: B1 RNA with A25C, U26G, A27U, G28A, U29G, G30U
# DNA 1: CAATCTGAATTCCGGTCTCCC
# DNA 2: TGGTGGCTACGACGGGATT
# B31: CAAUCGC (DNA:RNA)
# RNA: B1 RNA with A25C, U26A, G28U, U29C
# DNA 1: CAATCTGAATTCCGGTCTCCC
# DNA 2: TGGTGGCTACGACGGGATT
# Molecular target: T1, RBFOX1 RRM RbFoxmut (Fox-RRM*)
# Test: EMSA; HiTS-Eq, 1 nM pool, 10 min; buffer printed only for the single-RNA assays: 10 mM Tris pH 7.5, 150 mM NaCl, 3.4 mM EDTA, 0.001% NP-40, 30 C
# Settings: tags: His6 N-terminal (pET28a); label: 5' 32P
# Procedure, shortened: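 A pool of RNA with 7 randomized nucleotides, 5′-radiolabelled and with DNA-annealed flanks, was equilibrated at 1 nM for 10 min in 50 µL with purified RbFox RRM, wild type or mutant, across increasing protein concentrations. Free RNA was separated by 8% native PAGE, excised, reverse-transcribed, barcoded by PCR and sequenced. Relative association constants were obtained from read-count changes of each RNA species versus the control reaction and normalised to the cognate motif.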
row,Binder,binding signal
1,B1,0.129 KA relative to UGCAUGU
2,B2,0.0516 KA relative to UGCAUGU
3,B3,0.0795 KA relative to UGCAUGU
4,B4,0.107 KA relative to UGCAUGU
5,B5,0.0934 KA relative to UGCAUGU
6,B6,0.309 KA relative to UGCAUGU
7,B7,0.0562 KA relative to UGCAUGU
8,B8,0.072 KA relative to UGCAUGU
9,B9,0.103 KA relative to UGCAUGU
10,B10,0.0484 KA relative to UGCAUGU
11,B11,0.0807 KA relative to UGCAUGU
12,B12,0.11 KA relative to UGCAUGU
13,B13,0.0512 KA relative to UGCAUGU
14,B14,0.0824 KA relative to UGCAUGU
15,B15,0.104 KA relative to UGCAUGU
16,B16,0.0778 KA relative to UGCAUGU

row,Binder,binding signal
1,B17,0.101 KA relative to UGCAUGU
2,B18,0.101 KA relative to UGCAUGU
3,B19,0.0735 KA relative to UGCAUGU
4,B20,0.0616 KA relative to UGCAUGU
5,B21,0.532 KA relative to UGCAUGU
6,B22,0.0659 KA relative to UGCAUGU
7,B23,0.0723 KA relative to UGCAUGU
8,B24,0.0669 KA relative to UGCAUGU
9,B25,0.13 KA relative to UGCAUGU
10,B26,0.0863 KA relative to UGCAUGU
11,B27,0.153 KA relative to UGCAUGU
12,B28,0.241 KA relative to UGCAUGU
13,B29,0.0784 KA relative to UGCAUGU
14,B30,0.149 KA relative to UGCAUGU
15,B31,0.0533 KA relative to UGCAUGU
